Among the data in PMC10726135 are binding signal (log2 normalized intensity) values, retold here.

Some of the results follow. At the low end of the ranking, values are background and their order means little. The protein was read in a cell extract, so binding may be indirect.

This assay addresses T1, HNF4alpha8 (COS-7 nuclear extract) (UniProt P41235-5).
T1 sequence: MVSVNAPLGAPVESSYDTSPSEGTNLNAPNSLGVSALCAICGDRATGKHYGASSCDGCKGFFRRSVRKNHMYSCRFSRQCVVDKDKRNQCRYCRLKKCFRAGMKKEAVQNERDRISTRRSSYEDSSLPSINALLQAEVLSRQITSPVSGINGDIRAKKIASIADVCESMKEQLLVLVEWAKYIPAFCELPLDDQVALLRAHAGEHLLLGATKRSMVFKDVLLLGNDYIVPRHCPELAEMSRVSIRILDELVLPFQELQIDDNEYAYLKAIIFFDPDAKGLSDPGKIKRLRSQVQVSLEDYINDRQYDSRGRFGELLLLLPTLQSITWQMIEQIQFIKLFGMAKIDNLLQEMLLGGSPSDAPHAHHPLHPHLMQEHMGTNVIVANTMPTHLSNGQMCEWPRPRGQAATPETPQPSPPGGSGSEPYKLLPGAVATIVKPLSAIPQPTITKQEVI
As to the kind of experiment: protein-binding microarray. The following applies: COS-7 nuclear extract on double-stranded Agilent 4x180k PBM; binding buffer, salt, pH and temperature not given; high values mean tight binding; double strand, one strand shown; sequences stand for … in …GCCTAGGGAGATTAGAGTATCGGTCGA
For CTTCAGCCAGATAGCCACTGGGGTCATGGA, the binding signal (log2 normalized intensity) worked out at 3.08. With AGGCTGACCCGTGAATCCTTAAGATTCCTG the figure was -1.3. Regarding CTCTGTTGCATGGTTGACATACTTCTGAGT, the binding signal (log2 normalized intensity) amounted to 1.07.

As to GCATGAACCTTTGCTCCCTGGGAACCCCTC, the binding signal (log2 normalized intensity) was 3.47. In the case of TAGGAATGTCATGCAGCTAAAAGCAGCATC, the binding signal (log2 normalized intensity) was -1.21. With TTGGAGACGCAGAGAAGCACTGCAGTTTAA the figure was -1.37. With CATTAGGAGGAAAAAGAATGCCTCTTTCAA the figure was -1.34; with CTGCACTGCAATGACAATAAATTATACCAA, -1.32; with ATGGAGCTGGAGGGCAAAGGTCAGAGGCTG, 6.88. For GGCCTGGCCACTCCGTTTGCTATGGCCTTT the value was 2.36. As for TATTTAAGGGTTCAGGGCAGAAGAGGTTAT, the binding signal (log2 normalized intensity) was 1.2.

As to AAACAGTACTGACATCTATCAACATATCTT, the binding signal (log2 normalized intensity) was -1.32.

As for CCCTTTGGCCTTTCTAATTATTTACAGGGA, the binding signal (log2 normalized intensity) was 1.72. With GTGTATGATGACGCCACGCCGCTCTTTCTC the figure was -1.27. With AAGAGCATGGCGCCAGGGAGTGATTGCCCT the figure was 2.5; with GCGCCGCGCCGGGGAAGCTGTTGGGCGCCG, 1.42; with GGCAGACTCAAGATAGAGGGCTGCCAAAGC, -1.4. For CTGGAGAATCCTCTCTTGCTCAGGTGAGGC the value was -1.24; for CTCTTTCAACTTTCAACATTTAACTTAACC, 0.426. Consider CGCAGCAAGTTACACAAGTAGAATGAAAGC, for which the binding signal (log2 normalized intensity) was -1.31. With GAGGGGCCTGTCAGGCCCAGAAACACTGAA the figure was -1.24; with GCCTCCCTGTGGGGGAGGTGCAGAGAGGGG, -1.3.

Turning to CTTCCCTGGTCCTCAGGCCTTTGGACCCAG, the binding signal (log2 normalized intensity) was 6. With CTTCTCAACTAGGCCTGAAATTTGGCCTGC the figure was 1.97; with TGAATTCCAAAGGTTATTTTCTTTAAGCCT, 2.88. For GCAGATGATCAAGAGGCTCTTCAATGCATT the value was -1.32. For GTGAGTCAAGCACTTCTCACATCACGTCTC the value was -1.34; for CAAATGAAAAGAATATCTCAGCAGCCTGGC, -1.25. Regarding GAAATTCTCAAAAGTTTTTCCCTTCTGTTA, the binding signal (log2 normalized intensity) is -0.118. For GGTCACCTGGAAGCAGAAGGAGGAGGAGGT the value was -1.41. As for CTGGCATAGCATGCCACGATGATTAGCTGA, the binding signal (log2 normalized intensity) is -1.22. With CACAGCTGGACTTTGGCTGCAAAATTTGAA the figure was 3.88; with GCAGTGAGAACAGGTTCATTCTTTAAGTGT, 1; with AGAATTCCTTCTTGCTTAGGATAGGGTCAG, 2.52. GAGGACAGTTGTGTTTGTTGACCACTCTTT: the binding signal (log2 normalized intensity) came to 1.79.

Take TAAGATTAGGTGCTGAGCAACTATAAAACA: the binding signal (log2 normalized intensity) was -1.19. For CCAGTTTGCATTTTCATGGACAGAGATTAT the value was 1.21; for CCTTCAAGGATTAGCAGATAAATCTAGGCC, -0.973. With AACTTGTGTTCAGAGCTTGCTGCATTCCCC, the binding signal (log2 normalized intensity) came to 1.26. For CAACTAGGGCAAAGGTTAGCTTGGACAGAG the value was 3.68. With GATATCCATCATGTTTATCTTCTGCTTTCA the figure was -0.726; with TGTGTAACATTCCACAGGAACCAAAGTCTA, 2.55.

For TTCTCCACTGGGAAGTAGAAGAAAGCTTCA, the binding signal (log2 normalized intensity) was -1.29.

ACATCAGCTGAGCAGAGAGGACCCTGTGAT: the binding signal (log2 normalized intensity) worked out at 1.76. For GTTGGAATTTGGTCACAGAAAGTGACGTGC the value was 1.61. For TGTGCTCATGACAAAGAAATGTAACCTTTG, the binding signal (log2 normalized intensity) came to 4.55.

Turning to TTCCTGCCTGGTCCGCCCTTCCCCGCTCTC, the binding signal (log2 normalized intensity) amounted to 2.24. With GGATTTGGAGATCAGAGTCCAGCTGTGCCC the figure was 3.13; with TTTAACGGTCTGCCCTCTTGTCCTTCCCCT, 3.51. For GTAAGGAAGACAAGACAAGGAAGTTAAGAG the value was -1.28; for AAATACAAGGACACTGAAAGGCATTCTGCC, -1.19. For GCTGTTCCTTTCCTGCTGTTCCTTCAACAC the value was 0.806. On to AACCCATCCACCCATCCAAAGGTCAGCAAT, for which the binding signal (log2 normalized intensity) worked out at 4.75. With ACTGCCCGCTGGCCTCCCCATCCTCATGAC the figure was 2.93. With AACAAACATGAGGGACTGGGAAGAGAAGGT the figure was -1.4. For the sequence TCCAGCCCTGTCTCTCAGGTGTAACAGTTG, the binding signal (log2 normalized intensity) amounted to 0.88.

GTCAATGGTAGAAAAGGAAATATCTTCGTA: the binding signal (log2 normalized intensity) was -1.31. For GGGGTCAGCAAAAATAGCCAAAATAAAGCA the value was -1.29. With TTCCTGCTACAGAGCTCAGATTTCAAGGTG the figure was -0.838; with TGAACTAACAATTCTTTCTGATAAGAGCAT, -1.28; with TCCCGTCCCTGCCAAAGGTCAGAGTTGAAC, 4.3.

With TTTAGCTTTAGTTCAGGGAAGAGGGCACTC, the binding signal (log2 normalized intensity) came out at 0.987.

In the case of CTCAAATCTAGCCAATGATGCTAGCCAATA, the binding signal (log2 normalized intensity) is -1.36. For AGGGATTGTTTAGGTACAAAGTCCATTGGA the value was 8.46.

As to CTTGACTTTGGACTTTCAAAAGTTAAGGTC, the binding signal (log2 normalized intensity) was determined as 3.98.

In the case of GAATTTTTCTGTATAAGACAACCTTTGTTC, the binding signal (log2 normalized intensity) was 5.33. As to TCAATGGCCCCAGTGCACGTGCATGAGGCC, the binding signal (log2 normalized intensity) is -0.475. As for CACCTCCCTCAGAGCTCAGATGAACTTTGC, the binding signal (log2 normalized intensity) stood at 6.84. For ACTTTGGACTTGGGACTTTCGAGTTAATGC the value was 4.67; for AAAGGCTGTCACACTTGCCCTTTGCCCTCA, 8.84. In the case of GTTGCAGCATTGTTGGGATTAAGGAGAAGG, the binding signal (log2 normalized intensity) was -1.27.

Turning to CAGATAGATGGTCAGTGAACTGTGGTTGAC, the binding signal (log2 normalized intensity) turned out to be 1.58.

Take ACAATTGTCCCCAAGATTGAGGCCAGCAAA: the binding signal (log2 normalized intensity) is -0.647.
